Measured values as given in PubChem BioAssay (NCATS).
The list shows a part of the results. These are further read-outs of the screen, such as a control signal, another cell line or another target. No call is given for them. Most of these compounds were active or inconclusive in the main read-out, so they are no random draw. Words in brackets tell the shape of the fitted curve; partial curves, single points and poor fits give uncertain potencies.

Assay: qHTS Assay for Lipid Storage Modulators (AID 1519)
Conditions: Drosophila S3 cells, BODIPY lipid droplet/cell ratio, laser cytometry, cells loaded with oleic acid
Procedure, shortened: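 Cells seeded at 5,000 per well were treated with compounds over a concentration series and loaded with oleic acid (400 uM, as added). Lipid droplet fluorescence (488 nm excitation, 500-530 nm channel) was read by laser-scanning cytometry and normalized to 20 uM Triacsin C.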

[1] = measured here: cell count channel max response
[2] = measured here: lipid (BODIPY) channel AC50
[3] = measured here: lipid channel max response
[4] = measured here: cell number channel AC50
Tags give direction and shape of the fitted curve.

## N#CCCn1c(=O)c(-c2cc(F)cc(F)c2)nc2cnc(Nc3ccccc3)nc21
[1]
  max response: 15.7%
[2]
  AC50: 6.31 µM [rising, single point]
[3]
  max response: -5.22%

## CNc1nc(-c2ccc(N(C)C)cc2)nc2ccccc12
[1]
  max response: -16.4%
[2]
  AC50: 1.26 µM [rising, partial curve, poor fit]
[3]
  max response: -16.7%

## COCCn1c(=O)c(-c2ccccc2)nc2cnc(N3CCNCC3)nc21
[1]
  max response: 25%
[2]
  AC50: 14.1 µM [rising, partial curve, poor fit]
[3]
  max response: 34.8%

## O=c1c(-c2ccc(F)cc2)nc2cncnc2n1-c1ccccc1
[1]
  max response: 20.4%
[2]
  AC50: 3.16 µM [rising, full curve, poor fit]
[3]
  max response: 28.5%

## O=c1c(CCc2ccccc2)nc2cncnc2n1Cc1ccccc1Cl
[1]
  max response: 23.6%
[2]
  AC50: 0.891 µM [rising, full curve, poor fit]
[3]
  max response: 34.6%

## COc1ccc2[nH]cc(CCNc3ccnc(-c4ccc(C(=O)N(C)C)cc4)n3)c2c1
[1]
  max response: 11%
[2]
  AC50: 0.0282 µM [rising, full curve]
[3]
  max response: 13.5%

## CN1CCN(c2ncc3nc(-c4cccs4)c(=O)n(CCc4ccccc4)c3n2)CC1
[1]
  max response: 22.2%
[4]
  AC50: 1.26 µM [rising, full curve, poor fit]
[3]
  max response: 11.9%

## COc1ccc(-n2c(=O)cnc3cnc(N4CCNCC4)nc32)cc1
[1]
  max response: 17.7%
[2]
  AC50: 3.98 µM [rising, full curve, poor fit]
[3]
  max response: 30.6%

## CCNc1ncc2nc(-c3ccccc3)c(=O)n(C3CC3)c2n1
[1]
  max response: 26.1%
[2]
  AC50: 0.0126 µM [rising, full curve, poor fit]
[3]
  max response: 21.1%

## O=S(=O)(c1ccccc1)N1CCC2(CC1)CN(Cc1ccccc1)C2
[1]
  max response: 27.8%
[2]
  AC50: 0.355 µM [rising, full curve, poor fit]
[3]
  max response: 36.5%

## CNC(=O)[C@H]1O[C@H](n2cnc3c(NCc4cccc(I)c4)nc(Cl)nc32)[C@@H](O)[C@@H]1O
[1]
  max response: 57.9%
[4]
  AC50: 2.51 µM [rising, full curve, poor fit]
[3]
  max response: 75.4%

## O=c1cnc2cnc(Oc3cccc(Cl)c3)nc2n1C1CC1
[1]
  max response: 26.9%
[4]
  AC50: 0.708 µM [rising, full curve, poor fit]
[3]
  max response: 26.4%

## COCCn1c(=O)c(CCc2ccccc2)nc2cnc(N(C)C)nc21
[1]
  max response: 24.9%
[2]
  AC50: 0.562 µM [rising, full curve]
[3]
  max response: 31.2%

## COCCn1c(=O)c(-c2ccc(Cl)cc2)nc2cnc(Oc3ccc(OC)cc3)nc21
[1]
  max response: -25%
[2]
  AC50: 1.58 µM [rising, partial curve]
[3]
  max response: -37.1%

## O=C(Nc1cccc(F)c1)N1CC[C@@]2(CCCN(S(=O)(=O)c3ccccc3)C2)C1
[1]
  max response: 6.96%
[2]
  AC50: 2.51 µM [rising, single point]
[3]
  max response: 18.8%

## COc1cc2c(cc1OC)C(=O)OC2
[1]
  max response: 24.8%
[2]
  AC50: 15.8 µM [rising, partial curve]
[3]
  max response: 44.1%

## CC(C)NCC(O)COc1ccc(CC(N)=O)cc1 (stereo not given)
[1]
  max response: 17.9%
[2]
  AC50: 28.2 µM [rising, partial curve, poor fit]
[3]
  max response: 33.1%

## Cn1c(=O)c(-c2ccc(Cl)cc2)nc2cncnc21
[1]
  max response: 19.6%
[4]
  AC50: 4.47 µM [rising, partial curve]
[3]
  max response: 27.8%

## CNc1cc(-c2ccccc2C)ncn1
[1]
  max response: 27%
[2]
  AC50: 0.141 µM [rising, full curve, poor fit]
[3]
  max response: 28.2%

## COc1ccc(Oc2ncc3nc(C)c(=O)n(CCC#N)c3n2)cc1
[1]
  max response: 24.2%
[2]
  AC50: 0.398 µM [rising, full curve, poor fit]
[3]
  max response: 36.4%

## N#Cc1cccc(-c2nc3cnc(N4CCNCC4)nc3n(C3CC3)c2=O)c1
[1]
  max response: 7.48%
[2]
  AC50: 0.00562 µM [rising, full curve, poor fit]
[3]
  max response: 5.55%

## COc1ccc(C(=O)N2CCC[C@@]3(CCN(C)C3)C2)cc1
[1]
  max response: 26.7%
[2]
  AC50: 28.2 µM [rising, single point]
[3]
  max response: 37.4%

## CS(=O)(=O)Nc1cccc(-c2cncnc2NCc2ccccc2)c1
[1]
  max response: 32.2%
[4]
  AC50: 25.1 µM [rising, single point]
[3]
  max response: 41.4%

## CC(C)(C)NCC(O)COc1cccc2c1CC(O)C(O)C2 (stereo not given)
[1]
  max response: 16.3%
[2]
  AC50: 3.98 µM [falling, single point]
[3]
  max response: 18.6%

## CN1CCN(c2ncnc3ccc(-c4ccccc4C(F)(F)F)cc23)CC1
[1]
  max response: -22.2%
[2]
  AC50: 39.8 µM [falling, single point]
[3]
  max response: -42.9%

## COCCNc1nc(-c2c(C)noc2C)nc2ccccc12
[1]
  max response: 33.9%
[2]
  AC50: 31.6 µM [rising, partial curve, poor fit]
[3]
  max response: 43.9%

## COCCn1c(=O)c(-c2cccs2)nc2cncnc21
[1]
  max response: 26.5%
[2]
  AC50: 1.78 µM [rising, partial curve]
[3]
  max response: 37.1%

## COCCn1c(=O)c(-c2cc(F)cc(F)c2)nc2cnc(N3CCNCC3)nc21
[1]
  max response: 17.8%
[2]
  AC50: 0.0316 µM [rising, full curve, poor fit]
[3]
  max response: 23.7%

## COc1ccc2[nH]cc(CCNc3ccnc(-c4ccc5c(c4)OCO5)n3)c2c1
[1]
  max response: 20.4%
[2]
  AC50: 0.0251 µM [rising, full curve, poor fit]
[3]
  max response: 24.9%

## CC(=O)OCC1=C(C(=O)O)N2C(=O)C(NC(=O)CSc3ccncc3)[C@@H]2SC1 (stereo not given in full)
[1]
  max response: 17.4%
[2]
  AC50: 39.8 µM [rising, single point]
[3]
  max response: 32.5%

## C=NC(C(=O)NC1C(=O)N2C1SC(C)(C)C2C(=O)O)c1ccccc1 (stereo not given)
[1]
  max response: 15.8%
[2]
  AC50: 39.8 µM [rising, single point]
[3]
  max response: 33.8%

## N#Cc1ccc(CN2CCCC3(CCN(S(=O)(=O)c4ccccc4)CC3)C2)cc1
[1]
  max response: -8.23%
[4]
  AC50: 1.12 µM [rising, partial curve]
[3]
  max response: -17.9%

## COCCn1c(=O)c(-c2cccs2)nc2cnc(N3CCOCC3)nc21
[1]
  max response: 0.223%
[2]
  AC50: 3.55 µM [rising, single point]
[3]
  max response: -2.9%

## Cc1ccccc1-c1nc(NC2CCNCC2)c2ccccc2n1
[1]
  max response: 28.3%
[2]
  AC50: 3.98 µM [rising, full curve]
[3]
  max response: 36.5%

## c1cncc(CNc2nc(-c3cccnc3)nc3ccccc23)c1
[1]
  max response: 15.9%
[2]
  AC50: 0.794 µM [rising, full curve, poor fit]
[3]
  max response: 21.7%

## O=C(c1csnn1)N1CCC2(CCN(Cc3nccs3)CC2)CC1
[1]
  max response: 28.4%
[2]
  AC50: 0.0398 µM [rising, full curve, poor fit]
[3]
  max response: 34.3%

## Cc1ccccc1-c1ccc2ncnc(NCCN3CCOCC3)c2c1
[1]
  max response: 3.5%
[2]
  AC50: 5.62 µM [rising, partial curve, poor fit]
[3]
  max response: -0.573%

## CC(C)NC(=O)N1CC[C@@]2(CCCN(C(=O)c3cccc(F)c3)C2)C1
[1]
  max response: 2.02%
[2]
  AC50: 2 µM [rising, partial curve]
[3]
  max response: 9.05%

## COc1ccc(Oc2ncc3nc(-c4cccs4)c(=O)n(C)c3n2)cc1
[1]
  max response: 22.4%
[4]
  AC50: 0.141 µM [rising, full curve, poor fit]
[3]
  max response: -28.9%

## CC1(C)CC[C@]2(C(=O)O)CC[C@@]3(C)C(=CCC4[C@@]5(C)CCC(O)C(C)(C)C5CC[C@@]43C)C2C1 (stereo not given in full)
[1]
  max response: 22.9%
[2]
  AC50: 39.8 µM [rising, single point]
[3]
  max response: 36.3%

## COc1ccc2c(c1)c(CC(=O)OCC(=O)O)c(C)n2C(=O)c1ccc(Cl)cc1
[1]
  max response: 21.5%
[2]
  AC50: 39.8 µM [rising, single point]
[3]
  max response: 44.9%

## Cn1c(=O)c(-c2ccc(F)cc2)nc2cnc(Nc3ccccc3)nc21
[1]
  max response: 31.8%
[4]
  AC50: 0.00794 µM [rising, full curve, poor fit]
[3]
  max response: 6.2%

## O=C1CC(c2ccccc2O)Oc2ccc(O)cc21 (stereo not given)
[1]
  max response: 29.4%
[2]
  AC50: 31.6 µM [rising, partial curve]
[3]
  max response: 44.6%

## CCNc1ncc2nc(-c3ccc(OC)cc3)c(=O)n(-c3ccc(OC)cc3)c2n1
[1]
  max response: 17.2%
[2]
  AC50: 0.0398 µM [rising, full curve]
[3]
  max response: 24.7%

## CCNc1ncc2nc(-c3ccc(Cl)cc3)c(=O)n(C3CC3)c2n1
[1]
  max response: 16.7%
[2]
  AC50: 0.0562 µM [rising, full curve]
[3]
  max response: 18.4%

## CCC(C)(C)C(=O)O[C@@H]1C[C@@H](C)C=C2C=C[C@H](C)[C@H](CC[C@@H]3C[C@@H](O)CC(=O)O3)[C@H]21
[1]
  max response: 39.3%
[4]
  AC50: 31.6 µM [rising, single point]
[3]
  max response: 42.8%

## OCC(O)C(O)C(O)C(O)C(O)CO (stereo not given)
[1]
  max response: 27.5%
[2]
  AC50: 39.8 µM [rising, single point]
[3]
  max response: 39.2%

## Cc1cnc(CNc2ncnc3ccc(-c4ccccc4Cl)cc23)cn1
[1]
  max response: 23.5%
[2]
  AC50: 1.78 µM [rising, full curve, poor fit]
[3]
  max response: 22%

## COc1ccc(-c2nc3cnc(N4CCOCC4)nc3n(CCC#N)c2=O)cc1
[1]
  max response: 20.4%
[2]
  AC50: 0.316 µM [rising, full curve, poor fit]
[3]
  max response: 26.9%

## FC(F)(F)c1ccccc1-c1nc(Nc2ccncc2)c2ccccc2n1
[1]
  max response: -16.6%
[2]
  AC50: 25.1 µM [falling, single point]
[3]
  max response: -31.7%

## C[C@H]1NC(=O)NC1=O
[1]
  max response: 7.85%
[2]
  AC50: 0.00224 µM [rising, full curve, poor fit]
[3]
  max response: 9.87%

## NC(=O)c1ccccc1-c1nc(-n2ccnc2)c2ccccc2n1
[1]
  max response: 22.9%
[2]
  AC50: 3.16 µM [rising, full curve, poor fit]
[3]
  max response: 31.1%

## CCCCOc1ccc(C(=O)CCN2CCCCC2)cc1
[1]
  max response: -22.9%
[2]
  AC50: 14.1 µM [falling, single point]
[3]
  max response: -32.7%

## O=c1cc(-c2ccc(O)c(O)c2)oc2cccc(O)c12
[1]
  max response: 14.8%
[2]
  AC50: 44.7 µM [falling, single point]
[3]
  max response: -97.3%

## CC(=O)Oc1c(-c2ccccc2)oc2c(CC=C(C)C)c3c(c(OC(C)=O)c2c1=O)C=CC(C)(C)O3
[1]
  max response: 10.9%
[2]
  AC50: 7.94 µM [rising, partial curve]
[3]
  max response: 20.7%
